PubChem BioAssay AID504333 (National Center for Advancing Translational Sciences (NCATS), 2011)
Out of some 360,000 compounds screened, about 16,000 (4.4%) were called active. The inconclusive results got no clear call from the source; some entries with a clear call stand among them for comparison. The call rests on the fitted dose curve; in most records, active means well fitted inhibition curve with a large enough effect; inconclusive means small, poorly fitted or top-dose-only effect; inactive means no such curve, though single readings can be large or run the other way. Where the call is inconclusive, the potency comes from a doubtful curve fit.

The compounds below were run against Bromodomain adjacent to zinc finger domain protein 2B (Homo sapiens) (UniProt Q9UIF8) (assay: qHTS Assay for Inhibitors of BAZ2B). Details: AlphaScreen BAZ2B-H3K14Ac peptide displacement; series mostly up to 114 µM.
UniProt Q9UIF8, sequence (Q9UIF8 whole entry, looked up, the tested form may be a part): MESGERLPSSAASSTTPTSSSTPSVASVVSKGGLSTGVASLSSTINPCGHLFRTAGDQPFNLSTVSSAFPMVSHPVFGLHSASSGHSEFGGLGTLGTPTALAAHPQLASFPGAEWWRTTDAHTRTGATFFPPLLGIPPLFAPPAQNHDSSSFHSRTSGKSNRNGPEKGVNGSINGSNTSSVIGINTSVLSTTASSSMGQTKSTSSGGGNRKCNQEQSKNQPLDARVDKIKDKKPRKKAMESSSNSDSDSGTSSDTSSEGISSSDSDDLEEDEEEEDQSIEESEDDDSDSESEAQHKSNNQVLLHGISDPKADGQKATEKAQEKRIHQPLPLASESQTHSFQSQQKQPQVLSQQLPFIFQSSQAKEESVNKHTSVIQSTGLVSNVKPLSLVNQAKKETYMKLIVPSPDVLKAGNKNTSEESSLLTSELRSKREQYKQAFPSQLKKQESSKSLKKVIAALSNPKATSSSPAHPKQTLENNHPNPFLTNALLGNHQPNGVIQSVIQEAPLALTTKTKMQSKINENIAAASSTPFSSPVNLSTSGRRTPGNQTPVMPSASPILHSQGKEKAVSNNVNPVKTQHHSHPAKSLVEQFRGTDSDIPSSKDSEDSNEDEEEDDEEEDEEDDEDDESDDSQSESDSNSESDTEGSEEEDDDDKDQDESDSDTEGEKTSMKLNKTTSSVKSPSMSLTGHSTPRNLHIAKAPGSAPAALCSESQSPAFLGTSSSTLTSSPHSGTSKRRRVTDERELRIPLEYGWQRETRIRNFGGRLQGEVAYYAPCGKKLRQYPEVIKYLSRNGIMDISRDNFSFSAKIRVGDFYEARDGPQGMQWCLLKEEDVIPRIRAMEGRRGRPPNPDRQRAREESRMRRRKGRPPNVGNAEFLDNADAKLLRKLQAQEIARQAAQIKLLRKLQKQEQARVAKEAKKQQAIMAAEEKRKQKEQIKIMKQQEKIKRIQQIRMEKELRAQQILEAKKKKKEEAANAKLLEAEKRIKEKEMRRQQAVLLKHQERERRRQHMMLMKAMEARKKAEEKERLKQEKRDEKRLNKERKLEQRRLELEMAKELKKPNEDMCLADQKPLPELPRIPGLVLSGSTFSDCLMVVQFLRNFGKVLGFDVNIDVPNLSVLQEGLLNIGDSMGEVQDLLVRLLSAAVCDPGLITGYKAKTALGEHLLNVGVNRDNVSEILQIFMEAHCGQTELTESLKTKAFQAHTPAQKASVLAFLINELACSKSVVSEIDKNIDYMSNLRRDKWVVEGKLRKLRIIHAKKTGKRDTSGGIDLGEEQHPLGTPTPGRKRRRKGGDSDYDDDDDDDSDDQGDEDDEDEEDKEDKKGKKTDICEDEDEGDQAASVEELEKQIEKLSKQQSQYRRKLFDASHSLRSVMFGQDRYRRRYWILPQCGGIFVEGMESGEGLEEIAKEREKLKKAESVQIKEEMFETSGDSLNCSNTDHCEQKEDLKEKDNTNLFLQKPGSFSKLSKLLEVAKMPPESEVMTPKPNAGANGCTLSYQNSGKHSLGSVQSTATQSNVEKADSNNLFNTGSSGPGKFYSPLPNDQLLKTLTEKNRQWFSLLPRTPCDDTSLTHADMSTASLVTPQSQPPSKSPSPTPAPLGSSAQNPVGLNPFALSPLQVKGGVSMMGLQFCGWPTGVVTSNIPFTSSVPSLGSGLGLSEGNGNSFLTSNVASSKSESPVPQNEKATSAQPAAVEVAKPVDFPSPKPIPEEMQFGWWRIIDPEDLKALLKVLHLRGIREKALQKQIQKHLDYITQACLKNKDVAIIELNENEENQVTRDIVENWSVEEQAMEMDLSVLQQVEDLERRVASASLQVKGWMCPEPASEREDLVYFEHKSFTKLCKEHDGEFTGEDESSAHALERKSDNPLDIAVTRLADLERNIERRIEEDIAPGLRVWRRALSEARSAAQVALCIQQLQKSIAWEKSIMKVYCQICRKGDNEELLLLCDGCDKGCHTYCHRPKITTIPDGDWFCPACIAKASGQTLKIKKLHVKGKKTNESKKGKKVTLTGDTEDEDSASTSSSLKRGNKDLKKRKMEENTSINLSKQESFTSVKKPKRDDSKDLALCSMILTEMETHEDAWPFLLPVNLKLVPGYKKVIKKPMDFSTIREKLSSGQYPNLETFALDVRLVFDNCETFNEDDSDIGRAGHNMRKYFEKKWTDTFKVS
Summary of the method: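 AlphaScreen displacement: compounds (up to 110uM) incubated 30 min at room temperature with a preformed 50 nM BAZ2B/50 nM biotinylated H3K14Ac peptide complex in PBS pH 7.4 with Tween-20. Donor and acceptor beads at 10 ug/mL final added, 20 min light-protected before reading.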
Further: nearly all actives have a fitted effect of over 60% in size.
Potency means the concentration at half of the fitted maximal effect; tags describe the fitted curve by direction and shape.

Row | Compound | Potency
1 | COc1ccc(N2Cc3cccc(C(=O)N4CCN(C(=O)c5ccco5)CC4)c3C2=O)cc1 | active: 50.1 µM
2 | COc1cccc(NC(=O)c2csc3c2CCCCC3)c1 | inactive
3 | CCN(CC)CCn1c(=S)[nH]c2ccccc2c1=O | inactive
4 | CCCn1nnc(NC(=S)NC(=O)Cc2ccccc2)n1 | inactive
5 | CCn1ccnc1CN1CCc2c([nH]c3ccccc23)C1C1CCCCC1 (stereo not given) | active: 35.5 µM
6 | COc1ccc(NCC(=O)Nc2ccc(C#N)cc2)cc1Cl | inconclusive: 89.1 µM [inhibitor, single point]
7 | Cc1oc(-c2cccc(Br)c2)nc1CN1CCC(C(=O)NCc2ccccc2)CC1 | inconclusive: 89.1 µM [inhibitor, single point]
8 | CCOC(=O)c1cc(CC)sc1NC(=O)CN1CCN(C(=O)c2ccco2)CC1 | inconclusive: 39.8 µM [inhibitor, partial curve]
9 | O=C(Cn1c(=O)sc2ccccc21)Nc1ccccc1C(=O)O | inconclusive: 100 µM [inhibitor, single point]
10 | COCCn1c(CCC(=O)Nc2ccc(OC)c(OC)c2)nc2cccnc21 | inactive
11 | O=C(CS(=O)(=O)c1nc(-c2ccc(Cl)cc2)cn1-c1ccccc1)Nc1cccc(Cl)c1 | inconclusive: 28.2 µM [inhibitor, full curve]
12 | COc1ccc(NC(=O)N/C=C/c2ccco2)cc1 | inconclusive: 79.4 µM [inhibitor, single point]
13 | CCOC(=O)CNc1nc(OCC#N)nc(N2CCOCC2)n1 | inconclusive: 89.1 µM [inhibitor, single point]
14 | COc1ccc([N+](=O)[O-])cc1NC(=O)CCSCCc1ccccn1 | inactive
15 | CC(=O)Nc1c(O)nc(SCC(=O)N2CCN(c3ccc(F)cc3)CC2)[nH]c1=O | inconclusive: 56.2 µM [inhibitor, partial curve]
16 | CN1CCN(c2ccc(C(F)(F)F)cc2NC(=O)c2ccco2)CC1 | inactive
17 | CC1CCC(=NNc2ccc(C(F)(F)F)cc2[N+](=O)[O-])CC1 (stereo not given) | active: 10 µM
18 | O=C(Cc1cccc2ccccc12)N/N=C/c1ccncc1 | inactive
19 | Cc1ccccc1NC(=O)COC(=O)c1c(-c2ccccc2)noc1C | inconclusive: 89.1 µM [inhibitor, single point]
20 | COc1ccccc1CNC(=O)c1cc2cccc3c2n1CCS3 | inactive
21 | COc1ccccc1/C=C/C=N/n1c(-c2ccco2)n[nH]c1=S | inconclusive: 79.4 µM [inhibitor, single point]
22 | COc1ccccc1C(=O)Nc1ccc(N2CCN(Cc3ccccc3)CC2)cc1 | active: 44.7 µM
23 | Cc1sc(NC(=O)C2c3ccccc3Oc3ccccc32)c(C(=O)OC(C)C)c1C | inactive
24 | CCc1nn2c(=O)c(S(=O)(=O)Nc3ccc(C)cc3C)c(C)nc2s1 | inactive
25 | Oc1ccc(/C=N/NC(=S)NCCN2CCOCC2)c(O)c1 | active: 10 µM

Row | Compound | Potency
26 | Cc1c(C(=O)N2CCCC2)oc2c1-c1nn(CC(=O)NCc3ccccc3F)cc1CC2 | inconclusive: 79.4 µM [inhibitor, single point]
27 | Cn1cccc1/C=N/NC(=O)Cc1cccs1 | inconclusive: 70.8 µM [inhibitor, single point]
28 | Cc1ccc(/C=C/C(=O)NC2CCCCCCC2)o1 | inconclusive: 89.1 µM [inhibitor, single point]
29 | O=C(c1ccc(F)cc1Cl)N(c1ccccn1)C1CCCCC1 | inconclusive: 79.4 µM [inhibitor, single point]
30 | CC(C)c1ccc(NC2CCCN(C(=O)c3cc(C(C)C)nc(N)n3)C2)cc1 (stereo not given) | inactive
31 | CCOc1ccccc1-c1nnc(SCC(=O)NC2CC2)n1CC | inactive
32 | COc1ccc(OC)c(C(=O)NC(CC(N)=O)c2ccc(N3CCN(c4ccccn4)CC3)c([N+](=O)[O-])c2)c1 (stereo not given) | inconclusive: 79.4 µM [inhibitor, single point]
33 | Cc1ccccc1-n1c(=O)c2ccccc2n2cnnc12 | inactive
34 | CCOC(=O)c1nnsc1NC(=O)Nc1ccc(OC)cc1 | inconclusive: 89.1 µM [inhibitor, single point]
35 | Cc1ccc(C)c(N(CC(=O)Nc2ccccc2C(=O)NCc2ccco2)S(=O)(=O)c2ccccc2)c1 | inactive
36 | CN1c2ccccc2C(C)(C)[C@]12C=Cc1cc(O)ccc1O2 | active: 39.8 µM
37 | COc1ccc(C(=O)NNC(=O)C(C)NC(=O)c2ccccc2NC(=O)c2ccco2)cc1 (stereo not given) | inconclusive: 89.1 µM [inhibitor, single point]
38 | CCCSc1ncc(Cl)c(C(=O)NCc2ccc(C)cc2)n1 | inactive
39 | CCCCN1C(C(=O)c2ccccc2)=C(OC(=O)CC)c2ccccc2S1(=O)=O | inactive
40 | Cc1cc(-n2c(C)cc(C(=O)CN3C(=O)NC4(CCCCC4C)C3=O)c2C)no1 (stereo not given) | inactive
41 | CCn1nc(C(=O)Nc2ccc(S(=O)(=O)Nc3nccs3)cc2)c2ccccc2c1=O | inconclusive: 89.1 µM [inhibitor, single point]
42 | CCOC(=O)C1(Cc2cccc(OC)c2)CCN(C(C)CC(C)(C)O)CC1 (stereo not given) | inconclusive: 79.4 µM [inhibitor, single point]
43 | COc1ccc2c(c1)c(=O)oc1cc(OCC(=O)NC3CCCCC3)ccc12 | active: 79.4 µM
44 | Cc1cccc(N2CCN(S(=O)(=O)c3ccc4c(c3)C(C)(C)C(=O)N4C)CC2C)c1 (stereo not given) | inconclusive: 31.6 µM [inhibitor, full curve]
45 | C=CCOc1ccc(/C=C2\SC(=S)N(NS(=O)(=O)c3ccc(C)cc3)C2=O)cc1 | active: 39.8 µM
46 | CC(C)C(=O)c1ccc(O)c(O)c1 | inactive
47 | COc1ccccc1CNC(=O)CSc1nc(N)c(C#N)c(-c2cccs2)c1C#N | inconclusive: 39.8 µM [inhibitor, single point]
48 | O=C(Nc1cccc(C(F)(F)F)c1)Nn1cnnc1 | inactive
49 | CCN(CC)c1cc(NC2CCCCC2)c2c3c(onc13)-c1ccccc1C2=O | active: 3.55 µM
50 | COc1ccc(-c2ccc(-c3nc4c(c(=O)[nH]c(=O)n4Cc4ccccc4)n3C)o2)c([N+](=O)[O-])c1 | inconclusive: 50.1 µM [inhibitor, partial curve]

Row | Compound | Potency
51 | CCN(CC)c1ccc(/C=N/N2CCN(Cc3cccc4ccccc34)CC2)c(O)c1 | inconclusive: 5.01 µM [inhibitor, full curve, poor fit]
52 | COc1ccc(OC)c(Nc2nc(NCCO)c3ccccc3n2)c1 | active: 50.1 µM
53 | O=C(Nc1cccc(C(F)(F)F)c1)c1ccc2nc(-c3ccco3)c(-c3ccco3)nc2c1 | active: 50.1 µM
54 | CN1C(=O)/C(=C\c2cc(Br)cs2)c2ccccc21 | inconclusive: 11.2 µM [inhibitor, full curve]
55 | CCOC(=O)CSc1nnc(CNC(=O)c2ccccc2OC)n1-c1ccc(OC)cc1 | inactive
56 | Cc1cc(-c2ccc(C)c(S(=O)(=O)Nc3ccc(C)c(N(C)C)c3)c2)on1 | inconclusive: 39.8 µM [inhibitor, single point]
57 | COc1cc2ccccc2cc1C(=O)Nc1ccc(N2CCN(C)CC2)cc1 | inconclusive: 79.4 µM [inhibitor, single point]
58 | CCCCN(CC)CCCNC(=O)c1ccc2c(c1)N(Cc1ccc(C)cc1)C(=O)c1ccccc1S2 | inconclusive: 39.8 µM [inhibitor, partial curve]
59 | CCC(=O)Nc1ccc2nc3c(=O)[nH]c(=S)[nH]c3nc2c1 | active: 50.1 µM
60 | O=C(NCC(c1ccco1)N1CCCCC1)c1ccc(S(=O)(=O)Nc2ccccc2)cc1 (stereo not given) | inactive
61 | O=C(O)CN1C(=O)/C(=C\c2cc([N+](=O)[O-])ccc2OCc2ccccc2Cl)SC1=S | active: 50.1 µM
62 | C=CCc1cc(OC)ccc1OCCON1C(=O)CCC1=O | inconclusive: 1.26 µM [inhibitor, full curve, poor fit]
63 | O=C(CCCN1C(=O)/C(=C\c2ccco2)SC1=S)Nc1ccc2ccccc2c1 | inconclusive: 39.8 µM [inhibitor, partial curve]
64 | COc1cc(/C=N/n2cnnc2)ccc1OC(=O)c1cccnc1 | inactive
65 | Cc1ccc(N(C)S(=O)(=O)c2nnc(NC(=O)c3ccco3)s2)cc1 | inconclusive: 3.55 µM [inhibitor, full curve]
66 | COc1ccc(-c2c(C#N)c(SCC(=O)Nc3ccc(C)c(C)c3)nc(C)c2C(=O)Nc2ccccc2)cc1OC | inactive
67 | CCCC(c1nnnn1Cc1ccccc1)N1CCN(c2ccccc2OC)CC1 (stereo not given) | inconclusive: 89.1 µM [inhibitor, single point]
68 | O=C(Nc1cc(C(F)(F)F)ccc1N1CCOCC1)c1ccc(Br)o1 | inconclusive: 44.7 µM [inhibitor, partial curve, poor fit]
69 | CCCC(=O)Nc1ccc(Cl)c(NC(=S)NC(=O)c2ccco2)c1 | inactive
70 | CC(C)(C)S(=O)(=O)/C(C#N)=N/Nc1ccc(Cl)cc1 | inconclusive: 50.1 µM [inhibitor, partial curve]
71 | O=[N+]([O-])c1cc(Cl)ccc1Sc1ccccn1 | inconclusive: 39.8 µM [inhibitor, partial curve]
72 | O=C(CN1C(=O)NC2(CCCCC2)C1=O)N1CCOCC1 | inactive
73 | COc1ccc2cc3c(N)c(C(=O)N4CCCC4)sc3nc2c1 | inconclusive: 89.1 µM [inhibitor, single point]
74 | Cc1nc2ccccc2c2oc(C(=O)N3CCN(C(=O)c4ccco4)CC3)cc12 | inactive
75 | Cc1cccc(NC(=O)Cn2c(=O)n(Cc3nc(-c4ccccc4)no3)c(=O)c3ccccc32)c1 | inconclusive: 89.1 µM [inhibitor, single point]
